Drawing on US20250075006A1, this text covers EC50 (read off the curve) for eight molecules.

First the molecules themselves.
B1: hu-Lab306H4-huFc (Fc fusion)
chain: EVQLVESGGGLVQPGGSLRLSCAASGFTLDDYAIGWFRQAPGKEREGVICLTSGGLPKYADSVKGRFTISRDNSKNTLYLQMNSLRAEDTAVYYCAASGATSRWNCPPQYDHWGQGTMVTVSS[human IgG1 Fc with C220S (EU numbers) not listed]
B2: hu-Lab306H5-huFc (Fc fusion)
chain: B1 chain with A24T
B3: hu-Lab306H6-huFc (Fc fusion)
chain: B1 chain with S74A
B4: hu-Lab306H7-huFc (Fc fusion)
chain: B1 chain with Q81R
B5: hu-Lab322H3-huFc (Fc fusion)
chain: EVQLVESGGGLVQPGRSLRLSCAASVLNLDYYAITWFRQAPGKEREGVSCIQGRGTSTNYADSVKGRFTISRDRAKKSAYLQMNSLRAEDTALYYCAVRYVSYGRNTACGLLPESVDHWGQGTMVTVSS[human IgG1 Fc with C220S (EU numbers) not listed]
B6: hu-Lab322H5-huFc (Fc fusion)
chain: B5 chain with L93T, M124Q
B7: hu-Lab322H6-huFc (Fc fusion)
chain: B5 chain with R87K, A88P
B8: hu-Lab322H4-huFc (Fc fusion)
chain: B5 chain with E1Q, V2L

Substitutions are numbered along the chain they refer to.

The assay concerns the target cynomolgus monkey GUCY2C protein, full length, on CHO cells (cynomolgus monkey). Kind of assay: FACS on CHO-cyno GUCY2C cells, MFI.
B1: the EC50 (read off the curve) stood at 1 nM.

The molecule B2 returned an EC50 (read off the curve) of 1 nM.

Turning to B3, the EC50 (read off the curve) turned out to be 1 nM.

With B4, the EC50 (read off the curve) is 1 nM.

Molecule B5 registered an EC50 (read off the curve) of 0.2 nM.

In the case of B6, the 50% effective concentration (EC50 (read off the curve)) was determined as 0.2 nM.

B7 gave an EC50 (read off the curve) of 0.2 nM.

Consider B8, for which the EC50 (read off the curve) was 0.2 nM.
